In patent EP4582447A1 (Quaerite Biopharm Research (Beijing) Co., Ltd., dated 2025):

B1: V15-9GS-PPCP-Fc (Fc fusion)
chain: QLQLVESGGGSVQPGGSLRLSCEVSGRTFASYTMGWFRQAPGKEREFVVAISKGGYKYDSVSLEARFTISKDNTKNTVYLQMNSLKPEDTAVYYCAGTRAYGSSRLRLAETYEYWGQGTQVTVSSGGGGSGGGS[… human IgG1 Fc …]SGGSHHHHHH
B2: V1-SA1-Fc-m1 (Fc fusion)
chain: EVQLVESGGGLVQPGGSLRLSCAVSGRTFSSYTMGWFRQAPGKEREFVVAISKGGYKYDSVSLEARFTISRDNAKNTVYLQMNSLRPEDTAVYYCAATRAYGSSRLRLADTYEYWGQGTLVTVSS[… human IgG1 Fc with changes …]
notes: no histidine tag, no additional amino acids at the C terminus; also called V1-SAI-Fc-m1; monovalent nanobody-Fc fusion protein (V1-SA1-Fc-m1)

Experiments:
Human VEGFA165 [1] = target: T1, Human VEGFA165 (human, UniProt P15692-4 27-191); test: ELISA, VEGFA coated 0.3 µg/mL, anti-His detection
T1 construct: treated as the same molecule; also called antigen VEGFA
T1 sequence (looked up): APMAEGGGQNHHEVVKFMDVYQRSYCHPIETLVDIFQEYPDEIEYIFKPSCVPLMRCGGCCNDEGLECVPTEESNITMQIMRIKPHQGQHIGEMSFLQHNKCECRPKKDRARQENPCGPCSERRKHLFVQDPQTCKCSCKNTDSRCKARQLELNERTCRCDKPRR

Human VEGFA165 [2] = target: T1, Human VEGFA165; test: SPR Biacore 8K, V1-SA1-Fc-m1 captured on Protein A chip, VEGFA165 as analyte, 1:1 model

Binder	EC50 (Human VEGFA165 [1]) [nM]	Kd (Human VEGFA165 [2]) [nM]	koff (Human VEGFA165 [2]) [s⁻¹]	kon (Human VEGFA165 [2]) [M⁻¹ s⁻¹]
B1	0.35	–	–	–
B2	–	0.148	0.00013	877000
